Values marked as one replicate rest on one cluster of the flow cell; about a third of the high ones do not repeat.
These sequences were tested on ATP (assay: switch fluorescence ratio, 500 uM ATP over buffer (Cy3 cluster intensity, sum of 5 cycles each) (fold (ratio)); higher = stronger signal-on switching upon ATP binding; sequences stand for … in TCGTCGGCAGCGTCAGATGTGTATAAGAGACAGTTTTTTTTTTTTTTTTTTTTTTTTT…TC). Conditions: aptamer strand: ATP DNA aptamer (quencher-CACCTGGGGGAGTATTGCGGAGGAAGG + anchor), 100 nM annealed; ATP concentration: 500 uM; one replicate.
Summary of the method: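 For every switch-domain sequence, the fluorescence ratio is the mean of per-cluster values, each being summed target-cycle Cy3 intensity over summed buffer-cycle Cy3 intensity. Clusters outside 100-1000 RFU were excluded. On a modified Illumina MiSeq flow-cell, the Cy3-labelled switching-strand clusters were annealed to 100 nM quencher-labelled ATP aptamer, imaged in selection buffer and then after 15 min with 500 uM ATP at 22 °C. Five such cycles were run, with NaOH stripping and re-annealing between them.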
TGCGCGAAGA showed a switch fluorescence ratio of 1.04.
CTACTGGCCC showed a switch fluorescence ratio of 1.02.
Sequence AGGTGGACT has a switch fluorescence ratio of 1.03.
AAGACACGGA gave a switch fluorescence ratio of 0.993.
In the case of AACTAAACCA, the switch fluorescence ratio is reported as 1.05.
GGAGTCAGTA gave a switch fluorescence ratio of 1.02.
ACAGTCCTTC was tested, and the switch fluorescence ratio was 1.04.
Sequence GTGTAAGGC has a switch fluorescence ratio of 1.09.
For ACGGGAGGAG, the switch fluorescence ratio was 0.995.
In the case of ATCCGTTTGG, the switch fluorescence ratio is reported as 0.972.
TCATAGGGCG showed a switch fluorescence ratio of 1.03.
Work on CATTCTGGGT yielded a switch fluorescence ratio of 0.99.
Sequence GATAGCGAAC has a switch fluorescence ratio of 1.59.
With GGTGTAACGT the switch fluorescence ratio was 0.967.
CACTTATAAG was tested, and the switch fluorescence ratio was 1.01.
With TTGAACAATG the switch fluorescence ratio was 1.07.
Sequence AAGGCACGAC has a switch fluorescence ratio of 1.01.
AACAACAGCT gave a switch fluorescence ratio of 0.998.
Work on CGGCAAAGGA yielded a switch fluorescence ratio of 0.984.
Sequence TTATTCAGGG has a switch fluorescence ratio of 0.994.
For CCTAGCGCCA, the switch fluorescence ratio was 3.07.
In the case of CGGGTTTTAA, the switch fluorescence ratio is reported as 0.992.
With ACGAGAATTG the switch fluorescence ratio was 1.
For GCTAGGGAGG, the switch fluorescence ratio was 0.967.
Sequence CGTTATTTTC has a switch fluorescence ratio of 0.997.
For GGGTAGATAT, the switch fluorescence ratio was 0.994.
CATACAAGGT was tested, and the switch fluorescence ratio was 0.993.
GCATACCCGC gave a switch fluorescence ratio of 1.19.
For TCGTGATACG, the switch fluorescence ratio was 1.15.
Sequence AGGGTACTCT has a switch fluorescence ratio of 1.03.
In the case of TACATTAACT, the switch fluorescence ratio is reported as 1.06.
Sequence CAAGTGGCAG has a switch fluorescence ratio of 0.971.
TTGAAGCTCA gave a switch fluorescence ratio of 1.03.
Sequence CGCTGTTGTG has a switch fluorescence ratio of 0.99.
In the case of ATCGGCGCA, the switch fluorescence ratio is reported as 0.965.
In the case of TCGGATCGGC, the switch fluorescence ratio is reported as 1.02.
For TTGGCCAACC, the switch fluorescence ratio was 1.02.
In the case of ATGCAGTTAT, the switch fluorescence ratio is reported as 1.
TTTGAGCTCA gave a switch fluorescence ratio of 1.06.
TGCCTGAGTA gave a switch fluorescence ratio of 0.978.
Sequence GGGCTATTTC has a switch fluorescence ratio of 1.43.
TATAAGTCCC showed a switch fluorescence ratio of 1.01.
GATTAGGCTA was tested, and the switch fluorescence ratio was 0.99.
GCATTATGAT showed a switch fluorescence ratio of 1.04.
For AGTGCCCCGT, the switch fluorescence ratio was 1.02.
GTACTGTTTT showed a switch fluorescence ratio of 1.01.
In the case of ATAGGCGTAG, the switch fluorescence ratio is reported as 1.03.
GGGCAGCATT gave a switch fluorescence ratio of 1.
With TTCATTCTGC the switch fluorescence ratio was 1.05.
For CGTCAGTCAG, the switch fluorescence ratio was 0.985.
GGGCAAG was tested, and the switch fluorescence ratio was 1.14.
For ATCTGTGATC, the switch fluorescence ratio was 1.04.
Sequence TTCAATGCTA has a switch fluorescence ratio of 1.11.
With GCTGCTGCGA the switch fluorescence ratio was 1.04.
With ATAATGTTAT the switch fluorescence ratio was 1.02.
Work on AATGTCACGG yielded a switch fluorescence ratio of 1.05.
In the case of GAGTGTTTTC, the switch fluorescence ratio is reported as 0.99.
Sequence AAGGAGCCGC has a switch fluorescence ratio of 1.02.
AGAAGTACAT showed a switch fluorescence ratio of 1.05.
Sequence ACTTCCTTTC has a switch fluorescence ratio of 1.35.
For GTGCCCGGGT, the switch fluorescence ratio was 1.04.
For GAACTTACG, the switch fluorescence ratio was 1.32.
With TGAGACGTTG the switch fluorescence ratio was 0.998.
GCAACCTGTA was tested, and the switch fluorescence ratio was 1.01.
With TCGGCGACGG the switch fluorescence ratio was 0.993.
For TATTGATTTC, the switch fluorescence ratio was 0.967.
Sequence AATCTGAAGG has a switch fluorescence ratio of 1.03.
For TTAAAAACCG, the switch fluorescence ratio was 1.02.
CCCACCGGCT was tested, and the switch fluorescence ratio was 1.06.
ACAGGGATAT gave a switch fluorescence ratio of 0.978.
ATTTAGTGGC was tested, and the switch fluorescence ratio was 1.01.
GTCGTGTC was tested, and the switch fluorescence ratio was 0.945.
ATTTGTAATA showed a switch fluorescence ratio of 1.03.
Work on TAAGCGTGCG yielded a switch fluorescence ratio of 1.01.
In the case of CTGGAGGCTG, the switch fluorescence ratio is reported as 1.09.
In the case of TACGTTTCTA, the switch fluorescence ratio is reported as 1.01.
Sequence TCCGGCTTGC has a switch fluorescence ratio of 1.01.
In the case of AAATTGTATC, the switch fluorescence ratio is reported as 1.05.
With ACGGCCGGGT the switch fluorescence ratio was 1.07.
Sequence GCACACTGCA has a switch fluorescence ratio of 0.997.
Sequence CCGTAGAAAC has a switch fluorescence ratio of 3.85.
Work on TCGTGAGCT yielded a switch fluorescence ratio of 0.972.
With GGATACAGGG the switch fluorescence ratio was 1.05.
CTACATATGT showed a switch fluorescence ratio of 1.
TTTACCAAGT was tested, and the switch fluorescence ratio was 1.06.
In the case of TGTCGATTAC, the switch fluorescence ratio is reported as 1.08.
Sequence TCTTTGAATA has a switch fluorescence ratio of 1.01.
For TAGCGCCTTT, the switch fluorescence ratio was 0.986.
In the case of ACGCGAGTGG, the switch fluorescence ratio is reported as 1.02.
With ATGCTGTAAT the switch fluorescence ratio was 1.01.
TTAGTAGCAC gave a switch fluorescence ratio of 1.13.
CATCTGCCGG gave a switch fluorescence ratio of 1.23.
For TGCCGTAATA, the switch fluorescence ratio was 1.57.
For GGAAAGGTAG, the switch fluorescence ratio was 1.03.
TCTTTACTTG showed a switch fluorescence ratio of 1.01.
With ATATAATAAG the switch fluorescence ratio was 1.02.
Sequence TTGCTGAGAT has a switch fluorescence ratio of 0.998.
In the case of TTTTGAAGG, the switch fluorescence ratio is reported as 0.926.
GCACCTCGAT gave a switch fluorescence ratio of 1.
TCGACGTACT gave a switch fluorescence ratio of 1.56.
For ATAAATGACA, the switch fluorescence ratio was 0.982.
TGCTATGAAT was tested, and the switch fluorescence ratio was 0.998.
In the case of GTGAGGCATC, the switch fluorescence ratio is reported as 0.946.
ATAACTTAAT was tested, and the switch fluorescence ratio was 1.01.
Sequence TCTGCACCAA has a switch fluorescence ratio of 1.19.
Work on TATCCAAGG yielded a switch fluorescence ratio of 1.01.
For CCCCGATACC, the switch fluorescence ratio was 2.14.
In the case of GTGATGTAGG, the switch fluorescence ratio is reported as 0.936.
TAGGGAAACG was tested, and the switch fluorescence ratio was 0.98.
For CGCCTCGTA, the switch fluorescence ratio was 1.03.
Work on GGGTCGTTAA yielded a switch fluorescence ratio of 0.999.
Sequence TACGGTATCT has a switch fluorescence ratio of 1.15.
AGCAATTTTG showed a switch fluorescence ratio of 1.06.
CACTGTGGAA gave a switch fluorescence ratio of 1.02.
For GACTTTTTAC, the switch fluorescence ratio was 1.08.
ATCTCAAACA was tested, and the switch fluorescence ratio was 1.01.
Sequence AGGGGTCCTG has a switch fluorescence ratio of 0.974.
GGATAAGGG was tested, and the switch fluorescence ratio was 0.988.
TGGGATTCGA gave a switch fluorescence ratio of 1.07.
AATGTCTCTG was tested, and the switch fluorescence ratio was 1.03.
CTAATTGCGT was tested, and the switch fluorescence ratio was 1.02.
GATTATAGTC gave a switch fluorescence ratio of 1.01.
For CGATTGAGAT, the switch fluorescence ratio was 1.02.
TTTTCAGCTT gave a switch fluorescence ratio of 1.99.
TCCCTGGTTG showed a switch fluorescence ratio of 1.19.
For TTTGTTATAG, the switch fluorescence ratio was 1.06.
In the case of ACTTAAAGTG, the switch fluorescence ratio is reported as 1.04.
Sequence GACTTTTTAA has a switch fluorescence ratio of 1.03.
With AGGGCCTTTG the switch fluorescence ratio was 1.04.
CGCCACGCCG gave a switch fluorescence ratio of 0.947.
Sequence CGAACGTCCG has a switch fluorescence ratio of 0.984.
CTCCAGTGCC showed a switch fluorescence ratio of 1.49.
Work on GCTATGGCAT yielded a switch fluorescence ratio of 0.985.
GGCTTCACTA was tested, and the switch fluorescence ratio was 0.978.
In the case of TTCATGAGAA, the switch fluorescence ratio is reported as 1.
Work on GCGGGTTCTG yielded a switch fluorescence ratio of 0.978.
GAATTTATC was tested, and the switch fluorescence ratio was 1.01.
CGCAGAATAA showed a switch fluorescence ratio of 1.24.
Sequence TTCGGACTAA has a switch fluorescence ratio of 1.01.
CTTGGCAGAG was tested, and the switch fluorescence ratio was 1.
For TCGCTATCGG, the switch fluorescence ratio was 0.995.
In the case of ATAAGCAGGT, the switch fluorescence ratio is reported as 1.12.
For CGTTCTGCGA, the switch fluorescence ratio was 1.1.
In the case of TGATTCCGAG, the switch fluorescence ratio is reported as 1.14.
GCATAGCCAC showed a switch fluorescence ratio of 1.04.
With GAGGATTAAT the switch fluorescence ratio was 0.952.
ACCCAGGGTC was tested, and the switch fluorescence ratio was 1.3.
CTTATTATAC gave a switch fluorescence ratio of 1.71.
With GGAAGACACG the switch fluorescence ratio was 1.03.
Sequence GTCAATGTAT has a switch fluorescence ratio of 1.02.
AGCGAACCCC was tested, and the switch fluorescence ratio was 1.17.
Work on CCTGCTGCCA yielded a switch fluorescence ratio of 1.72.
GGGATTCGAT gave a switch fluorescence ratio of 0.975.
In the case of AACCACGAGC, the switch fluorescence ratio is reported as 1.01.
For AGCTCTGTCT, the switch fluorescence ratio was 1.03.
In the case of GATGCGGAAA, the switch fluorescence ratio is reported as 1.02.
AACCGCTAAG showed a switch fluorescence ratio of 1.26.
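Further: ATP exposure 15 min at 22 °C before imaging.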
